# Out of some 310,000 compounds screened, about 2,200 (0.71%) showed an effect of 50% or more. Effects have a minus sign here. The list shows a part of the results.
# Target: human ether-à-go-go-related gene (hERG) potassium channel (human, UniProt Q12809)
# Assay: primary screen, population patch clamp on CHO cells stably expressing hERG
# Chain of human ether-à-go-go-related gene (hERG) potassium channel (Q12809 whole entry, looked up): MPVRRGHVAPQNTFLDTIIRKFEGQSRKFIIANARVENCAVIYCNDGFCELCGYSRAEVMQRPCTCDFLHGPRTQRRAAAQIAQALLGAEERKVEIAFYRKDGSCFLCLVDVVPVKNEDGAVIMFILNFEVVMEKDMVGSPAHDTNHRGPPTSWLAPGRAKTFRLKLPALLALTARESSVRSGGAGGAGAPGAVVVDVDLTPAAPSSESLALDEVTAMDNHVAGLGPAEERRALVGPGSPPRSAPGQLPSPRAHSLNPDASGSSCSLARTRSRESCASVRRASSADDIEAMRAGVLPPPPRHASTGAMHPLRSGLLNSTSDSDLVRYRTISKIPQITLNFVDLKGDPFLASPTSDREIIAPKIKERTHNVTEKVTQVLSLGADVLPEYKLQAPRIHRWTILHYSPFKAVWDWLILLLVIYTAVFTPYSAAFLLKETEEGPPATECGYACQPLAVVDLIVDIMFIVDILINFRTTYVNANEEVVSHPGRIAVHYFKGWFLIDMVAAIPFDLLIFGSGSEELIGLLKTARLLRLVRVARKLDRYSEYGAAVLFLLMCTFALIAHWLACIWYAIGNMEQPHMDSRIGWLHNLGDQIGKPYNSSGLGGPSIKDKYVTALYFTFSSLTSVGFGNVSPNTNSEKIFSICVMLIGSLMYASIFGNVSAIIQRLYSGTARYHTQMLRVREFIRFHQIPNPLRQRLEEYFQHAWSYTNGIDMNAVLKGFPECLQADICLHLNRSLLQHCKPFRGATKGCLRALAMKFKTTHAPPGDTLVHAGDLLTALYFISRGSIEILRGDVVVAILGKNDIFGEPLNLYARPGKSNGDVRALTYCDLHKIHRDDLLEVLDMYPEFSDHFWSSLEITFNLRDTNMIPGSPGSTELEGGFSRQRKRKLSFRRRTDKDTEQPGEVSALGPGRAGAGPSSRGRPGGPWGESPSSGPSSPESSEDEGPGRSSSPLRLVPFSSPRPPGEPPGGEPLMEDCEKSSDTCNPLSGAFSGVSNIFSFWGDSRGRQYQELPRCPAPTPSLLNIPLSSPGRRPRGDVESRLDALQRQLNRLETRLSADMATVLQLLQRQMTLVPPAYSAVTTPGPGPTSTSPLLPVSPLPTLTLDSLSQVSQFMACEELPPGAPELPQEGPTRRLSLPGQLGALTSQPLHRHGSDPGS
row,Structure (SMILES),"hERG current change (%, negative = inhibition) at 1uM"
1,NC(=O)NCc1cccs1,13.7%
2,COc1ccc(-c2[nH]ncc2CN2CCN(C3CCCCC3)C(=O)C2)cc1F,9.9%
3,CCN=C(NCC)SC1CC(=O)N(c2ccc(OC)cc2)C1=O (stereo not shown),6.66%
4,O=C(CSc1ccc(-c2cccs2)nn1)NCCc1ccccc1,1.23%
5,Cn1cnnc1Sc1nc2c(c(=O)n(C)c(=O)n2C)n1C,7.35%
6,CCCOc1ccc(/C(O)=C2\C(=O)C(=O)N(c3ccccn3)C2c2ccccc2F)cc1C (stereo not shown),3.81%
7,O=C(NC1CCCCC1)C1CCN(C(=O)c2ccc(-c3ccccc3)cc2)CC1,4.3%
8,Cc1cc(NS(=O)(=O)c2ccc(NC(=O)C(C)Oc3ccc(Cl)cc3)cc2)no1 (stereo not shown),12.5%
9,COc1ccc(/C=N/NC(=O)c2ccccc2F)cc1CN1CCN(c2ccc(F)cc2)CC1,-64.4%
10,Cc1cccc(N2C(=O)C(O)=C(C(=O)c3cccs3)C2c2ccc(F)cc2)n1 (stereo not shown),10.5%
11,COC(=O)c1ccc(CN2CCc3ccc(NC(=O)c4ccncc4)cc3C2)cc1,9.37%
12,Cc1n[nH]c(C)c1Sc1ccccc1N,8.84%
13,CCOC(=O)CNc1c(-c2ccc(O)cc2)nc2ccc(Cl)cn12.Cl,-13.3%
14,Cc1nn(Cc2c(F)cccc2Cl)c(C)c1NC(=O)C1CC1,3.23%
15,CC(=O)Nc1ccc2c(COC(=O)CC3Sc4ccccc4NC3=O)cc(=O)oc2c1 (stereo not shown),12.4%
16,CC(=O)N(C)Cc1ccc(C(=O)CCl)cc1,9.71%
17,COc1ccc(CNC(=O)Cn2nc([N+](=O)[O-])c(Br)c2C)cc1OC,4.71%
18,O=C(O)c1cc(NC(=O)c2ccc(Cl)c([N+](=O)[O-])c2)cc(C(=O)O)c1,7.11%
19,Clc1ccc(-c2cnc(Oc3ccccc3)nc2)cc1,7.11%
20,O=C(Nc1cccnc1)c1ccc(CSc2ccccc2)cc1,4.9%
21,CCOC(=O)C1(CCc2ccccc2)CCN(C(=O)C2CCOCC2)CC1,-21.2%
22,CN(C)S(=O)(=O)c1cccc(C(=O)OCC(=O)Nc2sccc2C#N)c1,8.48%

row,Structure (SMILES),"hERG current change (%, negative = inhibition) at 1uM"
1,Cn1nc(C(F)(F)F)c(-c2ccccc2)c1NC(=O)CSCC(=O)O,10.2%
2,CCOC(=O)C1CCN(c2ccc([N+](=O)[O-])cc2S(=O)(=O)N2CCOCC2)CC1,-2.21%
3,CC(CCc1ccccc1)NC(=O)c1ccc(C(=O)NC(C)CCc2ccccc2)cc1 (stereo not shown),5.63%
4,COC(=O)C1=C(c2ccc(F)cc2OCc2ccccc2)C[C@@H]2CC[C@H]1N2C(=O)N1CCC(O)CC1,12.1%
5,CCNc1nc(NCC)nc(N(C#N)CCOc2ccccc2)n1,-13.7%
6,COC(=O)c1ccc(/C=C2/C(=O)Oc3ccccc32)cc1,16.8%
7,N#Cc1c(-c2ccccc2)c(-c2ccccc2)nn(CC(=O)NNC(=O)Nc2ccc(Cl)c(Cl)c2)c1=O,-4.54%
8,O=C(CCC(=O)N1CCC2(CC1)OCCO2)Nc1nnc(C(F)(F)F)s1,12.9%
9,Cc1cc(-c2csc(NC(=O)c3cccc(S(=O)(=O)N(C)C)c3)n2)c(C)n1-c1ccccc1,9.26%
10,COc1ccc(CCN(C)C2CCCN(S(C)(=O)=O)C2)cc1OC (stereo not shown),6.5%
11,Cn1c(Cn2cnc([N+](=O)[O-])n2)nnc1SCC(=O)Nc1cccc(Cl)c1,5.55%
12,COC(=O)/C(C#N)=C1/C=Cc2ccccc2N1,6.5%
13,CCOC(=O)c1[nH]c2ccc(OC)cc2c1NC(=O)CN1CCc2ccccc2C1,-2.6%
14,O=C(OCC(=O)N1CCCCC1)c1cc(NS(=O)(=O)c2ccc(Cl)c([N+](=O)[O-])c2)ccc1O,12.5%
15,Cc1c(C(=O)N2CCC[C@H]2C(N)=O)oc2c(F)cccc12,14.7%
16,S=c1[nH]cc(-c2ccccc2)n1-c1ccccc1,11.1%
17,Cc1ccc(Nc2c(-c3ccccc3O)nc3ncccn23)cc1,8.42%
18,Cn1c(O)c(/C=C/C=Nc2ccccc2)c(=O)n(C)c1=S,6.02%
19,COc1ccc2ccc(O)c(CN3CCN(S(=O)(=O)c4cc([N+](=O)[O-])ccc4C)CC3)c2c1,3.82%
20,Cc1c(OCC(F)(F)F)ccnc1CSc1nc2ccccc2[nH]1,15.8%
21,COc1cccc(C(=O)C2CCCN(Cc3cccn3-c3ccccn3)C2)c1 (stereo not shown),-84%
